The campaign covered roughly 410,000 compounds. About 6,400 (1.6%) were called active. Inconclusive results, whose numbers are uncertain, are shown with a selection of clear calls. Calls come from the whole dose curve; as a rule, active = well fitted inhibition curve with a large enough effect; inconclusive = small, poorly fitted or top-dose-only effect; inactive = no such curve, though single readings can be large or run the other way. Potencies of inconclusive entries are left out as doubtful fits.
target: Glucagon-like peptide 1 receptor (Homo sapiens) (UniProt P43220); assay: qHTS of GLP-1 Receptor Inverse Agonists (Inhibition Mode); details: HEK293 GLP-1R CRE-luciferase, luminescence, 24 h, GLP-1R form is constitutively active; activity change, negative = inhibition: at 38.3 µM (top of the series) unless noted; note: nearly all actives have a fitted effect of over 55% in size
Method in brief: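 Constitutively active GLP-1R drives a cAMP-responsive luciferase in stably transfected HEK293 cells; test compounds are added after overnight (12 h) attachment and left 24 hr, and signal loss in luminescence marks inhibition.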
% is set by controls: 0 for no effect and ±100 for the full control effect; potency is the fitted concentration of half-maximal effect; tags give direction and shape of the fitted curve.

Chain of UniProt P43220 (P43220 whole entry, looked up): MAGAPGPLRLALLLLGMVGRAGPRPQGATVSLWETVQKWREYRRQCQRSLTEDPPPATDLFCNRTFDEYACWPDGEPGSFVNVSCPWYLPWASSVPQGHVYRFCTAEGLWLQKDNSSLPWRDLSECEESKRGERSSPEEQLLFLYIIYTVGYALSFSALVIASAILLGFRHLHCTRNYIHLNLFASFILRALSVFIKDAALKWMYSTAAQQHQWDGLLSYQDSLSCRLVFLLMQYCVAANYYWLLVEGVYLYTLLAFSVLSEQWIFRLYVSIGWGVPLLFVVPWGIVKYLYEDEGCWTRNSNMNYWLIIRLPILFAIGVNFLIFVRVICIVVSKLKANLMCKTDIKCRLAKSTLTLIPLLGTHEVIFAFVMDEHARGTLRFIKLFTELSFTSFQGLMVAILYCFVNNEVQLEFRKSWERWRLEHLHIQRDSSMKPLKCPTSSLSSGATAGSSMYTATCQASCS

| SMILES | Potency | activity change, negative = inhibition |
| --- | --- | --- |
| Cc1ccc(-c2cc(-c3ccccc3)nc(NN)n2)cc1 | inconclusive [inhibitor, partial curve, poor fit] | – |
| CCCc1ccc2oc(C(=O)NCCN3CCCC(C(N)=O)C3)c(C)c2c1 (configuration not stated) | inconclusive [inhibitor, single point] | – |
| C=CCNC(=O)/C(C#N)=C/c1ccccc1OCc1ccc(C(=O)OC)cc1 | inconclusive [inhibitor, single point] | – |
| COc1ccc(Cc2nc3ccc(C(=O)N4CCCCC4CO)cc3o2)cc1OC (configuration not stated) | – | inactive: 42.7% |
| Cc1ccc(C)c(NNC(=O)C(=O)NNc2cc(C)ccc2C)c1 | inconclusive [inhibitor, full curve, poor fit] | – |
| CN(c1ccccc1)S(=O)(=O)c1cccc(C(=O)N2CCCCCC2)c1 | inconclusive [inhibitor, single point] | – |
| Cc1ccc(C(=O)C2(C)C3c4cc(Br)ccc4OC(=O)C32C(=O)c2ccco2)cc1 (configuration not stated) | – | inactive: -16.8% |
| COc1ccc(OC)c(CCNC(=O)CS(=O)(=O)Cc2nc(-c3ccccc3Cl)oc2C)c1 | inconclusive [inhibitor, full curve, poor fit] | – |
| COc1ccc(CCC(=O)NNC(=O)Nc2cc(Cl)ccc2C)cc1 | inconclusive [inhibitor, single point] | – |
| CCOC(=O)[C@]12CCCC=C1N(Cc1ccc3c(c1)OCO3)C(=O)[C@H](CC(=O)NCCc1ccccc1OC)C2 | inconclusive [inhibitor, partial curve] | – |
| CCOc1ccc2ccccc2c1/C=N/NC(=O)CNC(=O)c1ccccc1F | inconclusive [inhibitor, partial curve, poor fit] | – |
| CCO[C@@H]1OC(C(=O)NC2CC2)=C[C@H](c2c[nH]c3ccccc23)[C@H]1CCCO | – | inactive: 0.453% |
| O=C(NNc1nc(-c2ccccc2)cs1)c1cccs1 | inconclusive [inhibitor, single point] | – |
| O=S(=O)(NCCc1ccc(F)cc1)c1cc(C(F)(F)F)ccc1Br | inconclusive [inhibitor, single point] | – |
| O=C(N/N=C/c1cc(Br)cc(Br)c1O)c1ccncc1 | inconclusive [inhibitor, full curve, poor fit] | – |
| CCC(=O)Nc1ccc(S(=O)(=O)N2CCc3ccccc32)cc1 | inconclusive [inhibitor, single point] | – |
| OCCN(CCO)c1ccc(C(c2ccc(Cl)cc2)c2ccc(N(CCO)CCO)cc2Cl)c(Cl)c1 | inconclusive [inhibitor, partial curve, poor fit] | – |
| COc1ccccc1-c1c(C#N)c(N)nc2c1CCc1ccccc1-2 | inconclusive [inhibitor, single point] | – |
| COc1ccc(CC(=O)O/N=C(\N)Cc2cccc3ccccc23)cc1 | inconclusive [inhibitor, single point] | – |
| CC(C)CC(C(=O)Nc1oc(-c2ccccc2)c(-c2ccccc2)c1C#N)N1C(=O)c2ccccc2C1=O (configuration not stated) | active: 10 µM | – |
| COc1ccc(-c2cc3nc(C)c(CCC(=O)Nc4ccc(F)cc4F)c(C)n3n2)c(OC)c1 | – | inactive: -3.07% |

| SMILES | Potency | activity change, negative = inhibition |
| --- | --- | --- |
| CC1CCc2nc(NC(=O)c3ccco3)sc2C1 (configuration not stated) | inconclusive [inhibitor, partial curve, poor fit] | – |
| COc1ccc(OCC(=O)NCc2ccc(Cl)cc2)cc1 | inconclusive [inhibitor, full curve] | – |
| Cc1ccc(NC(=O)c2ccc(COc3ccccc3[N+](=O)[O-])o2)nc1 | inconclusive [inhibitor, partial curve, poor fit] | – |
| CC(C)(C)c1c(Cl)c(O)c(-c2ccccc2)c(=O)n1-c1ccccc1 | inconclusive [inhibitor, partial curve, poor fit] | – |
| CC(Oc1ccccc1)C(=O)Nc1nnc(S(=O)(=O)N2CCCCCC2)s1 (configuration not stated) | inconclusive [inhibitor, single point] | – |
| O=S(=O)(NC(=S)c1ccccc1)c1ccc(Cl)cc1 | inconclusive [inhibitor, single point] | – |
| Cc1ccccc1NC(=O)CN1CCC(NC(=O)Nc2ccccc2)CC1 | inconclusive [inhibitor, full curve] | – |
| COc1cc(/C=C/C(=O)OCC(=O)NC2CCCCCCC2)ccc1O | inconclusive [inhibitor, single point] | – |
| O=S(=O)(c1ccccc1)N1N=C(c2ccc(O)cc2)CC1c1ccco1 (configuration not stated) | inconclusive [inhibitor, single point] | – |
| CCCC(O)(c1ccc(Cl)cc1)C(CN1CCOCC1)c1ccccc1 (configuration not stated) | inconclusive [inhibitor, single point] | – |
| COc1ccc(C2c3ccc4ccccc4c3Oc3ncn(CCCO)c(=N)c32)cc1OC (configuration not stated) | inconclusive [inhibitor, partial curve, poor fit] | – |
| CC(C)c1ccccc1NC(=O)COC(=O)C1(C)CC1(Cl)Cl (configuration not stated) | inconclusive [inhibitor, partial curve, poor fit] | – |
| COc1ccc(Cl)cc1NC(=O)CNC(c1ccccc1)c1ccccc1 | inconclusive [inhibitor, full curve, poor fit] | – |
| COc1cc(C)ccc1OCCCCOc1ccccc1C(C)=O | inconclusive [inhibitor, partial curve, poor fit] | – |
| Cc1sc2nc(CSC(C)C(=O)NC3(C#N)CCCCC3)[nH]c(=O)c2c1C (configuration not stated) | inconclusive [inhibitor, single point] | – |
| Cc1nc2nc(CCNS(=O)(=O)c3ccc(Cl)cc3)cn2nc1C | inconclusive [inhibitor, single point] | – |
| COc1ccc(-c2nnc(SCC(=O)/C(C#N)=C(\C)N)o2)cc1 | inconclusive [inhibitor, partial curve, poor fit] | – |
| Cc1ccc(C(=O)Nc2ccccc2C(=O)N2CCN(c3ccccc3)CC2)cc1 | inconclusive [inhibitor, full curve, poor fit] | – |
| COc1cccc(NCc2cc(=O)oc3cc(C)c(O)cc23)c1 | inconclusive [inhibitor, partial curve, poor fit] | – |
| Cn1cccc1/C=N/NC(=O)c1sc2ccccc2c1Cl | – | inactive: -12.5% |
| COc1ccc(S(=O)(=O)N2CCCCCC2)cc1C(=O)N(C)Cc1ccc(F)cc1 | inconclusive [inhibitor, single point] | – |

| SMILES | Potency | activity change, negative = inhibition |
| --- | --- | --- |
| CC(C)(C)c1ccc(C(=O)Nc2cccc3ncccc23)cc1 | inconclusive [inhibitor, partial curve, poor fit] | – |
| Cc1cccc(-n2cnc(C(=O)O)c2)n1 | – | inactive: 2.21% |
| COCCCNc1ccn2nc(-c3cccc(Cl)c3)cc2n1 | inconclusive [inhibitor, single point] | – |
| CCCCC(=O)Nc1ccccc1N1CCN(c2ccc(F)cc2)CC1 | inconclusive [inhibitor, partial curve, poor fit] | – |
| COc1cc(OC)nc(Nc2nc(C(N)Cc3ccc(Cl)cc3)cs2)n1 (configuration not stated) | inconclusive [inhibitor, single point] | – |
| Cc1ccc(S(=O)(=O)c2nc(-c3ccco3)oc2N2CCC(C)CC2)cc1 | inconclusive [inhibitor, single point] | – |
| COc1ccccc1-n1c(SCC(=O)O)nc2c(sc(=S)n2-c2ccc(C)c(C)c2)c1=O | inconclusive [inhibitor, single point] | – |
| O=C(c1cccs1)N1CCN(c2ccc(Cl)cc2)CC1 | – | inactive: 5.4% |
| O=[N+]([O-])/C=C/c1ccc2c(ccn2Cc2ccccc2)c1 | inconclusive [inhibitor, single point] | – |
| O=C1OC(c2ccc(O)cc2)(c2ccccc2O)c2ccccc21 (configuration not stated) | inconclusive [inhibitor, single point] | – |
| CC(C)c1ccc(C(=O)NN2C(=O)C3CCCCC3C2=O)cc1 (configuration not stated) | inconclusive [inhibitor, single point] | – |
| COc1cc(CNCCc2ccccc2)cc(Br)c1OCC(=O)Nc1ccccc1C | active: 7.94 µM | – |
| Fc1ccccc1CNC(=S)Nc1cccc(C(F)(F)F)c1 | inconclusive [inhibitor, partial curve, poor fit] | – |
| Cc1cccnc1NC(=S)NC(=O)c1cccs1 | inconclusive [inhibitor, single point] | – |
| CCOC(=O)c1[nH]c2ccccc2c1NC(=O)c1ccccc1OC | inconclusive [inhibitor, single point] | – |
| Cc1ccccc1C(=O)Nc1cccc(C(=O)N/N=C/c2ccc3c(c2)OCO3)c1 | inconclusive [inhibitor, partial curve] | – |
| Cc1ccc(-n2c(-c3ccc(Cl)cc3)c[n+]3c2CCC3)cc1 | inconclusive [inhibitor, partial curve, poor fit] | – |
| O=C(CN1C(=O)C(c2ccc(F)cc2)=NC12CCCC2)Nc1ccc(F)cc1 | inconclusive [inhibitor, partial curve, poor fit] | – |
| CCc1ccc(CNC(=O)C(CC)n2nc(C)c3c(C)n(-c4ccccc4)nc3c2=O)cc1 (configuration not stated) | inconclusive [inhibitor, partial curve, poor fit] | – |
| COc1ccc(N=C2SCC(c3ccc(C)cc3)=NN2CCO)cc1 | inconclusive [inhibitor, partial curve, poor fit] | – |
